{
  "source": "PubChem BioAssay AID686979",
  "about": "(National Center for Advancing Translational Sciences (NCATS), 2013)",
  "note": "The whole screen tested about 420,000 compounds, of which about 50,000 (12%) were called active. Inconclusive means that the source gave no clear call. Such entries were picked first, then a sample of the others. Calls come from the whole dose curve; as a rule, active = well fitted inhibition curve with a large enough effect; inconclusive = small, poorly fitted or top-dose-only effect; inactive = flat fitted curve, though single readings scatter. Potencies of inconclusive entries are left out as doubtful fits. Potency is the fitted concentration of half-maximal effect; tags give direction and shape of the fitted curve.",
  "data": [
    {"experiment": "qHTS for Inhibitors of human tyrosyl-DNA phosphodiesterase 1 (TDP1): qHTS in cells in presence of CPT; note: nearly all actives have a fitted effect of over 55% in size", "settings": "chicken DT40 Tdp1-/-;hTDP1 cells + 20 nM CPT, ATP luminescence, 48 h; series mostly up to 46.2 µM", "how_it_was_run": "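Chicken DT40 Tdp1-/- cells complemented with human TDP1, 400 cells/well, exposed to compounds plus 20 nM camptothecin for at least 48 h at 37 C; viability read as ATP content by CellTiter-Glo luminescence.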", "values": [
      {"smiles": "COc1cccc(OC)c1C(=O)Nc1ccncc1", "Potency": "inactive"},
      {"smiles": "Cc1ccc(S(=O)(=O)c2nnn3c2nc(NCc2ccc4c(c2)OCO4)c2sccc23)cc1", "Potency": "inconclusive [inhibitor, single point]"},
      {"smiles": "COc1ccc2cc(C3CC(c4ccco4)=NN3C(=O)CCC(=O)O)c(Cl)nc2c1", "note": "(stereo unspecified)", "Potency": "inactive"},
      {"smiles": "COc1cccc(CNC(=O)Cn2ccc3cc(S(=O)(=O)N4CCCC4)ccc32)c1OC", "Potency": "inconclusive [inhibitor, single point]"},
      {"smiles": "Cc1ccc(NC(=O)C[n+]2cc(-c3ccccc3)n3c2CCC3)c(C)c1", "Potency": "inactive"},
      {"smiles": "O=C(c1ccccc1)N1CCc2ccccc21", "Potency": "inactive"},
      {"smiles": "Cc1cc(C)cc(-n2nnnc2SCC(=O)Nc2nc(-c3ccc(F)cc3)cs2)c1", "Potency": "inconclusive [inhibitor, single point]"},
      {"smiles": "COc1cccc(CNC(=O)C(=O)NCCC2CCCCN2S(=O)(=O)c2cccs2)c1", "note": "(stereo unspecified)", "Potency": "inconclusive [inhibitor, single point]"},
      {"smiles": "Cc1ccccc1-n1c(SCc2cc(=O)n3ccccc3n2)nc2[nH]ncc2c1=O", "Potency": "inconclusive [inhibitor, single point]"},
      {"smiles": "O=S1(=O)[C@H]2C[C@H](CO)O[C@@]2(CO)CN1Cc1ccc(-c2ccc(F)cc2)cc1", "Potency": "inconclusive [inhibitor, partial curve]"},
      {"smiles": "CC(C)C1O/C(=N/C(=O)Nc2ccc(Cl)c(Cl)c2)NC1=O", "note": "(stereo unspecified)", "Potency": "inconclusive [inhibitor, partial curve, poor fit]"},
      {"smiles": "CN1CCC(=O)N([C@H](CN=[N+]=[N-])Cc2ccccc2)CC1", "Potency": "inconclusive [inhibitor, full curve, poor fit]"},
      {"smiles": "O=C(O)C[C@]1(C(=O)Nc2ccc(F)cc2)CC(/C=C/c2ccccc2)=NO1", "Potency": "inactive"},
      {"smiles": "Cn1c(=O)c2c(nc(CN3CCN(c4ccccc4F)CC3)n2CCCc2ccccc2)n(C)c1=O", "Potency": "active: 16.4 µM"},
      {"smiles": "Cc1ccccc1-c1noc(CNC(=O)COc2ccccc2)n1", "Potency": "inactive"},
      {"smiles": "CC(NC(=O)CN1CCN(CC(=O)Nc2ccccc2Cl)CC1)c1ccc(Br)cc1", "note": "(stereo unspecified)", "Potency": "inconclusive [inhibitor, single point]"},
      {"smiles": "COc1ccccc1N1CCN(Cc2nc3ccccc3c(=O)n2CC(C)=O)CC1", "Potency": "inconclusive [inhibitor, single point]"},
      {"smiles": "Cc1nc2ccc(N)cc2s1", "Potency": "inactive"},
      {"smiles": "CC(C)(C)NC(=O)CSc1nc(Cc2ccccc2)nc2ccccc12", "Potency": "inconclusive [inhibitor, single point]"},
      {"smiles": "CCOC(=O)c1c(NC(=O)c2ccc(N3C(=O)[C@@H]4[C@H](C3=O)[C@H]3C=C[C@@H]4C3)cc2)sc2c1CCCC2", "Potency": "inactive"},
      {"smiles": "CC1CCN(C(=O)COC(=O)c2cccc(S(=O)(=O)N3CCOCC3)c2)CC1", "Potency": "inactive"},
      {"smiles": "CC(=O)Nc1ccc(NS(=O)(=O)c2ccc(OC(C)C(=O)N3CCOCC3)cc2)cc1", "note": "(stereo unspecified)", "Potency": "inactive"},
      {"smiles": "COc1ccc(-c2c(-c3cc(OC)cc(OC)c3)n(C)c3ccc(-c4cc(F)cc(OC)c4)cc23)cc1", "Potency": "inconclusive [inhibitor, partial curve, poor fit]"},
      {"smiles": "Cc1cccc(OCCSc2nc3ccccc3n2CC(=O)N2CCOCC2)c1C", "Potency": "inactive"},
      {"smiles": "COc1ccc(N2C(=O)CC(N3CCN(C4CCc5ccccc5C4)CC3)C2=O)cc1", "note": "(stereo unspecified)", "Potency": "inactive"},
      {"smiles": "CCCCn1nnnc1C(c1ccccc1)N1CCN(CC)CC1", "note": "(stereo unspecified)", "Potency": "inactive"},
      {"smiles": "CCOC(=O)N1CCC(n2c(=S)[nH]c3cc(OCC)c(OCC)cc3c2=O)CC1", "Potency": "inconclusive [inhibitor, partial curve, poor fit]"},
      {"smiles": "C[C@@H](c1ccccc1)N1C[C@@H](COCc2ccccc2)Oc2cc(N3CCC[C@H]3CO)ccc2S1(=O)=O", "Potency": "inconclusive [inhibitor, single point]"},
      {"smiles": "COc1ccc(-c2cn(-c3ccc(SC(F)F)cc3)c3[n+]2CCC3)cc1OC", "Potency": "inconclusive [inhibitor, single point]"},
      {"smiles": "CCOc1ccc(C2C(C(N)=O)=C(C)Nc3nc(-c4cccc(Cl)c4)nn32)cc1OC", "note": "(stereo unspecified)", "Potency": "inconclusive [inhibitor, single point]"},
      {"smiles": "O=C(c1cccc(S(=O)(=O)Nc2ccc(Br)cc2)c1)N1CCCC1", "Potency": "inactive"},
      {"smiles": "CCOc1cc(N2CCOCC2)c(OCC)cc1NC(=O)COC(=O)COc1ccc(C#N)cc1", "Potency": "inactive"},
      {"smiles": "CCc1nnc(NS(=O)(=O)c2ccc(NC(=O)CCC(=O)O)cc2)s1", "Potency": "inactive"},
      {"smiles": "CC(C)(C)OC(=O)N1CCC(C(=O)Nc2cccc(C(=O)NCCCc3ccccc3)c2)CC1", "Potency": "active: 14.6 µM"},
      {"smiles": "O=C(NCc1cccs1)C1CCN(c2nc3ccccc3o2)CC1", "Potency": "inconclusive [inhibitor, partial curve]"},
      {"smiles": "CCOC(=O)Cc1cc(=O)n2[nH]c(-c3ccc(C)cc3)cc2n1", "Potency": "inactive"},
      {"smiles": "O=CC(=O)c1ccc(F)cc1", "Potency": "inconclusive [inhibitor, single point]"},
      {"smiles": "CC[C@]1(O)CC2CN(CCc3c([nH]c4ccccc34)[C@@](C(=O)OC)(c3cc4c(cc3OC)N(C)[C@H]3[C@@](O)(C(N)=O)[C@H](O)[C@]5(CC)C=CCN6CC[C@]43[C@@H]65)C2)C1", "note": "(stereo partly specified)", "Potency": "active: 0.335 µM"},
      {"smiles": "Cc1ccc(NC(=O)C2CCCN(S(=O)(=O)c3c(C)nn(C)c3C)C2)c(C)c1", "note": "(stereo unspecified)", "Potency": "inconclusive [inhibitor, single point]"},
      {"smiles": "O=c1cc(-c2ccccc2)nc(SCc2ccc(F)cc2)[nH]1", "Potency": "inactive"},
      {"smiles": "CCc1nc2ccccc2c(=O)n1NC(=O)c1c(O)c2ccccc2[nH]c1=O", "Potency": "active: 20.6 µM"},
      {"smiles": "Cc1ccccc1C(=O)N1CCC2CC1c1cc(Cl)ccc12", "note": "(stereo unspecified)", "Potency": "inactive"},
      {"smiles": "CC(C)Oc1ccc(C(=O)NC2CCCCC2)cc1", "Potency": "inactive"},
      {"smiles": "O=C(Nc1cccc(S(=O)(=O)N2CCCCCC2)c1)c1ccc(Cl)nc1", "Potency": "active: 18.4 µM"},
      {"smiles": "Cc1[nH]n(-c2ccccc2)c(=O)c1C(=O)c1ccc([N+](=O)[O-])cc1", "Potency": "inconclusive [inhibitor, single point]"},
      {"smiles": "CCN1C(=O)c2ccccc2S(=O)c2ccc(C(=O)NCc3ccccc3OC)cc21", "note": "(stereo unspecified)", "Potency": "inconclusive [inhibitor, partial curve, poor fit]"}
    ]}
  ]
}
